# From PubChem BioAssay AID686979 (National Center for Advancing Translational Sciences (NCATS), 2013)
# “And” between values parts separate entries of the source, which are not always exact repeats. Equal values may be shown once. Among all 420,000 compounds or so, about 50,000 (12%) were called active. Inconclusive results, whose numbers are uncertain, are shown with a selection of clear calls. The call rests on the fitted dose curve; in most records, active means well fitted inhibition curve with a large enough effect; inconclusive means small, poorly fitted or top-dose-only effect; inactive means flat fitted curve, though single readings scatter. A potency beside an inconclusive call is a rough fit, not a confirmed value.
# Assay: qHTS for Inhibitors of human tyrosyl-DNA phosphodiesterase 1 (TDP1): qHTS in cells in presence of CPT; further: nearly all actives have a fitted effect of over 55% in size
# Details: chicken DT40 Tdp1-/-;hTDP1 cells + 20 nM CPT, ATP luminescence, 48 h; series mostly up to 46.2 µM
# Outline: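 Chicken DT40 Tdp1-/- cells complemented with human TDP1, 400 cells/well, exposed to compounds plus 20 nM camptothecin for at least 48 h at 37 C; viability read as ATP content by CellTiter-Glo luminescence.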
# Potency means the concentration at half of the fitted maximal effect; tags describe the fitted curve by direction and shape.
row,Structure (SMILES),Potency
1,Cc1cccc(C(C(N)=O)c2ncc(C(F)(F)F)cc2Cl)c1 (stereo not given),inactive
2,COc1ccc(CCNC(=O)[C@H](CCSC)NC(=O)N2CCn3c2nc2ccccc23)cc1OC,"inconclusive: 29.1 µM [inhibitor, single point]"
3,COc1ccc(NC(=O)C(NC(=O)c2ccc(C)cc2)c2ccccc2)cc1 (stereo not given),inactive
4,COc1ccc(/C=C2/SC(=S)N(CCCC(=O)Nc3cccc(O)c3)C2=O)cc1,"inconclusive: 29.1 µM [inhibitor, single point]"
5,Cc1cc(NC(=O)CSc2nnc(-c3ccncc3)n2-c2ccccc2)no1,inactive
6,CCC(C(=O)Nc1ccon1)c1ccccc1 (stereo not given),inactive
7,Cn1nc(-c2ccc(OCC(N)=O)cc2)c2ccccc2c1=O,inactive
8,CCC(=O)NC(=S)Nc1ccccc1OC,"inconclusive: 29.1 µM [inhibitor, single point]"
9,O=C(CCC(=O)c1cccs1)NCC(c1ccc(F)cc1)N1CCOCC1 (stereo not given),inactive
10,Cc1ccccc1Nc1nc(N)c2ccccc2n1,"inconclusive: 29.1 µM [inhibitor, single point]"
11,COc1ccc(N2CCN(C(=O)CSc3nnc(NC(=O)C4CC4)s3)CC2)cc1,inactive
12,COC(=O)c1c(NC(=O)CSc2nncs2)sc2c1CCCCC2,"inconclusive: 20.6 µM [inhibitor, single point]"
13,CCOCCCNC(=O)C1CCCN(c2ncnc3onc(C)c23)C1 (stereo not given),active: 16.4 µM
14,COc1cc(OC)cc(C(=O)Nc2ccccc2-c2nnn(CC(=O)Nc3cc(C)on3)n2)c1,"inconclusive: 29.1 µM [inhibitor, single point]"
15,N#Cc1c(-c2ccccc2)ccn(Cc2cccc(Cl)c2)c1=O,"inconclusive: 29.1 µM [inhibitor, single point]"
16,CC(C)(C)c1ccc(C(=O)C[n+]2cccc(Br)c2)cc1,"inconclusive: 35.5 µM [inhibitor, single point]"
17,CCC(CC)C(=O)N1N=C(c2ccc(NS(C)(=O)=O)cc2)CC1c1ccc(C)cc1 (stereo not given),"inconclusive: 23.1 µM [inhibitor, single point]"
18,Cc1cccc(C)c1NC(=O)C(c1ccc(C(F)(F)F)cc1)n1c(=O)c(-c2cc3ccccc3[nH]2)nc2ccccc21 (stereo not given),"inconclusive: 29.1 µM [inhibitor, single point]"
19,Cc1c(C)c2ccc(OCC(=O)N3CCN(C(=O)C4COc5ccccc5O4)CC3)cc2oc1=O (stereo not given),"inconclusive: 29.1 µM [inhibitor, single point]"
20,CCOc1ccc(NC(=O)c2cnn(-c3ccccc3)c2-n2cccc2)cc1,"inconclusive: 29.1 µM [inhibitor, single point]"
21,O=C(CSc1nnnn1-c1ccccc1)CC(=O)Nc1ccc(Cl)cc1,"inconclusive: 29.1 µM [inhibitor, single point]"
22,CCOC(=O)c1c(NC(=O)C(C)N2CCN(S(=O)(=O)c3cccs3)CC2)sc2c1CCC(C)C2 (stereo not given),active: 8.2 µM
23,O=C(c1cccc(Cl)c1)N1CCC(=O)N([C@H](COCc2cccc(Cl)c2)Cc2ccccc2)CC1,"inconclusive: 29.1 µM [inhibitor, single point]"
24,C(=N\Nc1nc(Nc2ccccc2)nc(N2CCOCC2)n1)/c1c[nH]c2ccccc12,active: 11.6 µM

row,Structure (SMILES),Potency
1,CC(C)C[C@@H](C(=O)NCc1ccco1)N1C(=O)N2CCc3c([nH]c4ccccc34)[C@@]2(C)C1=O,"inconclusive: 29.1 µM [inhibitor, single point]"
2,COc1ccc(S(=O)(=O)NC(=O)C2(C)CCN2C(=O)CCc2ccc(Cl)cc2Cl)cc1 (stereo not given),inactive
3,O=S(=O)(NCc1ccc(F)cc1)c1ccc(-n2cccn2)cc1,inactive
4,CN(Cc1ccccc1F)C(=O)c1ccc(Oc2ccccc2)cc1,"inconclusive: 29.1 µM [inhibitor, single point]"
5,CCN(CC(=O)Nc1cc(Cl)ccc1C)C(=O)C1CCN(c2ncnc3sc(C)c(C)c23)CC1,active: 18.4 µM
6,COc1ccc2oc(C(=O)OCC(=O)N3CCN(C(C)=O)CC3)c(C)c2c1,inactive
7,CCCn1nnc(NC(=S)NC(=O)c2ccc(-c3ccc(Br)cc3)o2)n1,"inconclusive: 29.1 µM [inhibitor, single point]"
8,COc1ccc(NC(=O)Cn2cc(S(=O)(=O)N3CCC(C)CC3)c3ccccc3c2=O)cc1Cl,"inconclusive: 5.8 µM [inhibitor, partial curve, poor fit]"
9,COc1ccc2c(c1)c1c(c(=O)n(-c3ccc(C)cc3)c(=O)n1CC(=O)c1ccc(Cl)cc1)n2C,inactive
10,O=C(NC12CC3CC(CC(C3)C1)C2)c1cc(F)c(F)c(F)c1F,"inconclusive: 23.1 µM [inhibitor, single point]"
11,Cc1ccc(C)c(CNS(=O)(=O)c2ccc3c(c2)C(C)(C)C(=O)N3C)c1,"inconclusive: 29.1 µM [inhibitor, single point]"
12,CC1=C(C(=O)OC(C)C)C(c2cccc(F)c2)n2ncnc2N1 (stereo not given),active: 14.6 µM
13,COc1ccccc1NC(=O)N1CCCC(c2nc3c(nnn3Cc3ccc(C)cc3)c(=O)[nH]2)C1 (stereo not given),"inconclusive: 25.9 µM [inhibitor, single point]"
14,Cc1ccccc1C(=O)Nc1cccc(OCc2cc(=O)n3c4c(sc3n2)CCCC4)c1,inactive
15,CCN(Cc1ccccc1)c1ccc(/C=N/NS(=O)(=O)c2cccc([N+](=O)[O-])c2)cc1,inactive
16,NNC(=O)c1cccc(Cn2cc(Br)c([N+](=O)[O-])n2)c1,"inconclusive: 20.6 µM [inhibitor, single point]"
17,Cc1ccc(CN(C)C(=O)c2cccc(S(=O)(=O)N3CCc4ccccc43)c2)cc1,"inconclusive: 20.6 µM [inhibitor, single point]"
18,Cc1ccc(N2CCN(/N=C/c3cccnc3)CC2)cc1,"inconclusive: 18.4 µM [inhibitor, single point]"
19,O=C(c1ccc(S(=O)(=O)N2CCOCC2)cc1)N(Cc1ccco1)Cc1cccs1,"inconclusive: 16.4 µM [inhibitor, single point]"
20,CC1CCCN(Cc2cccc(Oc3ccccc3)c2)C1 (stereo not given),inactive
21,CCOC(=O)c1c(-c2ccccc2)c2cc(OC)ccc2n1CCCN(C)C,"inconclusive: 29.1 µM [inhibitor, single point]"
22,CCOc1ccc(N(CC(=O)NCCSc2ccccn2)S(=O)(=O)c2ccc(Cl)cc2)cc1,"inconclusive: 14.6 µM [inhibitor, partial curve, poor fit]"
23,CN(Cc1ccc(Cl)cc1)C(c1cc2ccccc2o1)c1nnnn1C(C)(C)C (stereo not given),"inconclusive: 29.1 µM [inhibitor, single point]"
24,CCCOC(=O)C1=C(C)NC2=C(C(=O)C(C(=O)OC)C(C)C2)C1c1ccc(N(CC)CC)cc1 (stereo not given),"inconclusive: 9.2 µM [inhibitor, partial curve]"

row,Structure (SMILES),Potency
1,CC(NC(=O)C1CCCN1S(=O)(=O)c1cccc2nsnc12)c1ccccc1 (stereo not given),inactive
2,Cc1ccc(C)c(N2CCN(C(=O)c3ccc(-c4nc(COc5ccccc5)c(C)o4)cc3)CC2)c1,active: 23.1 µM
3,CN1C[C@@H]2[C@@H]3C(=O)N(C)C(=O)[C@@H]3[C@](C)(C1=O)N2C(=O)c1ccc(F)cc1,inactive
4,Cc1ccc2c(c1)cc1c(=O)n(CC(=O)N(C)c3ccccc3)nc(C)n12,"inconclusive: 29.1 µM [inhibitor, single point] and inconclusive: 18.4 µM [inhibitor, single point]"
5,O=C(CCCCn1c(=O)[nH]c2ccsc2c1=O)N1CCN(c2cccc(C(F)(F)F)c2)CC1,active: 11.6 µM
6,Nc1cc(=O)[nH]c(=O)n1Cc1ccccc1,inactive
7,CN(C)c1ccc(C(=S)N2CCN(c3ccc([N+](=O)[O-])cc3)CC2)cc1,active: 14.6 µM
8,Cc1c(C(=O)Nc2c(C)n(C)n(-c3ccccc3)c2=O)oc2ccc(Cl)cc12,"inconclusive: 20.6 µM [inhibitor, single point]"
9,CN(C)c1ccc(CN(CC2CCCO2)C(=O)c2cccs2)cc1 (stereo not given),"inconclusive: 29.1 µM [inhibitor, single point]"
10,CCCCCn1c(=O)[nH]c2cc(C(=O)NCCCN3CCCCC3CC)ccc2c1=O (stereo not given),"inconclusive: 13 µM [inhibitor, single point]"
11,O=C(CSC1=NCCS1)NC(NC(=O)CSC1=NCCS1)c1ccccc1,inactive
12,COc1ccc(CN(Cc2ccco2)C(=O)COc2ccc(Cl)cc2C)cc1,"inconclusive: 16.4 µM [inhibitor, single point]"
13,CC(C)Sc1nnc2n(CCc3ccccc3)c(=O)c3c4c(sc3n12)COC(C)(C)C4,active: 23.1 µM
14,CC(C)(C)CN1C(N)=NC[C@H]1Cc1ccc(O)cc1,"inconclusive: 13 µM [inhibitor, partial curve]"
15,COc1cc(C=O)c(Cl)cc1OCC(N)=O,inactive
16,Cn1ncc(Br)c1C(=O)N1CCc2ccccc21,inactive
17,Cc1nc(NCc2c(C)nn(C)c2Cl)sc1-c1ccn(CC2COc3ccccc3O2)n1 (stereo not given),active: 16.4 µM
18,Cc1ccc(-c2csc3ncnc(Oc4cccc5ccc(C)nc45)c23)cc1,"inconclusive: 29.1 µM [inhibitor, single point]"
19,CN1CCN(S(=O)(=O)c2ccc(F)cc2)CC1,inactive
20,CCNC(=O)C1(C)CCCN1Cc1ccccc1Cl (stereo not given),active: 23.1 µM
21,CSCCC(NS(=O)(=O)c1ccccc1)C(=O)OCc1cc(=O)oc2cc(O)ccc12 (stereo not given),"inconclusive: 29.1 µM [inhibitor, single point]"
22,Cn1c(=O)[nH]c(=O)c2c1nc(NC1CCCCC1)n2Cc1ccccc1,"inconclusive: 32.6 µM [inhibitor, single point]"
